Test results as given in PubChem BioAssay AID504333 (National Center for Advancing Translational Sciences (NCATS), 2011).
The campaign covered roughly 360,000 compounds. About 16,000 (4.4%) were called active. Inconclusive results, whose numbers are uncertain, are shown with a selection of clear calls. Calls come from the whole dose curve; as a rule, active = well fitted inhibition curve with a large enough effect; inconclusive = small, poorly fitted or top-dose-only effect; inactive = no such curve, though single readings can be large or run the other way. A potency beside an inconclusive call is a rough fit, not a confirmed value.

biological target: Bromodomain adjacent to zinc finger domain protein 2B (Homo sapiens) (UniProt Q9UIF8); assay: qHTS Assay for Inhibitors of BAZ2B; settings: AlphaScreen BAZ2B-H3K14Ac peptide displacement; series mostly up to 114 µM; note: nearly all actives have a fitted effect of over 60% in size
Summary of the method: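 AlphaScreen displacement of biotin-H3(5-23)K14Ac peptide (50 nM final) from BAZ2B (50 nM final) in PBS pH 7.4, 0.01% Tween-20; complex preformed 30 min RT, then compounds (top 110 uM) 30 min RT, beads 20 min dark.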
Potency is the fitted concentration of half-maximal effect; tags give direction and shape of the fitted curve.

Chain of UniProt Q9UIF8 (Q9UIF8 whole entry, looked up, the tested form may be a part): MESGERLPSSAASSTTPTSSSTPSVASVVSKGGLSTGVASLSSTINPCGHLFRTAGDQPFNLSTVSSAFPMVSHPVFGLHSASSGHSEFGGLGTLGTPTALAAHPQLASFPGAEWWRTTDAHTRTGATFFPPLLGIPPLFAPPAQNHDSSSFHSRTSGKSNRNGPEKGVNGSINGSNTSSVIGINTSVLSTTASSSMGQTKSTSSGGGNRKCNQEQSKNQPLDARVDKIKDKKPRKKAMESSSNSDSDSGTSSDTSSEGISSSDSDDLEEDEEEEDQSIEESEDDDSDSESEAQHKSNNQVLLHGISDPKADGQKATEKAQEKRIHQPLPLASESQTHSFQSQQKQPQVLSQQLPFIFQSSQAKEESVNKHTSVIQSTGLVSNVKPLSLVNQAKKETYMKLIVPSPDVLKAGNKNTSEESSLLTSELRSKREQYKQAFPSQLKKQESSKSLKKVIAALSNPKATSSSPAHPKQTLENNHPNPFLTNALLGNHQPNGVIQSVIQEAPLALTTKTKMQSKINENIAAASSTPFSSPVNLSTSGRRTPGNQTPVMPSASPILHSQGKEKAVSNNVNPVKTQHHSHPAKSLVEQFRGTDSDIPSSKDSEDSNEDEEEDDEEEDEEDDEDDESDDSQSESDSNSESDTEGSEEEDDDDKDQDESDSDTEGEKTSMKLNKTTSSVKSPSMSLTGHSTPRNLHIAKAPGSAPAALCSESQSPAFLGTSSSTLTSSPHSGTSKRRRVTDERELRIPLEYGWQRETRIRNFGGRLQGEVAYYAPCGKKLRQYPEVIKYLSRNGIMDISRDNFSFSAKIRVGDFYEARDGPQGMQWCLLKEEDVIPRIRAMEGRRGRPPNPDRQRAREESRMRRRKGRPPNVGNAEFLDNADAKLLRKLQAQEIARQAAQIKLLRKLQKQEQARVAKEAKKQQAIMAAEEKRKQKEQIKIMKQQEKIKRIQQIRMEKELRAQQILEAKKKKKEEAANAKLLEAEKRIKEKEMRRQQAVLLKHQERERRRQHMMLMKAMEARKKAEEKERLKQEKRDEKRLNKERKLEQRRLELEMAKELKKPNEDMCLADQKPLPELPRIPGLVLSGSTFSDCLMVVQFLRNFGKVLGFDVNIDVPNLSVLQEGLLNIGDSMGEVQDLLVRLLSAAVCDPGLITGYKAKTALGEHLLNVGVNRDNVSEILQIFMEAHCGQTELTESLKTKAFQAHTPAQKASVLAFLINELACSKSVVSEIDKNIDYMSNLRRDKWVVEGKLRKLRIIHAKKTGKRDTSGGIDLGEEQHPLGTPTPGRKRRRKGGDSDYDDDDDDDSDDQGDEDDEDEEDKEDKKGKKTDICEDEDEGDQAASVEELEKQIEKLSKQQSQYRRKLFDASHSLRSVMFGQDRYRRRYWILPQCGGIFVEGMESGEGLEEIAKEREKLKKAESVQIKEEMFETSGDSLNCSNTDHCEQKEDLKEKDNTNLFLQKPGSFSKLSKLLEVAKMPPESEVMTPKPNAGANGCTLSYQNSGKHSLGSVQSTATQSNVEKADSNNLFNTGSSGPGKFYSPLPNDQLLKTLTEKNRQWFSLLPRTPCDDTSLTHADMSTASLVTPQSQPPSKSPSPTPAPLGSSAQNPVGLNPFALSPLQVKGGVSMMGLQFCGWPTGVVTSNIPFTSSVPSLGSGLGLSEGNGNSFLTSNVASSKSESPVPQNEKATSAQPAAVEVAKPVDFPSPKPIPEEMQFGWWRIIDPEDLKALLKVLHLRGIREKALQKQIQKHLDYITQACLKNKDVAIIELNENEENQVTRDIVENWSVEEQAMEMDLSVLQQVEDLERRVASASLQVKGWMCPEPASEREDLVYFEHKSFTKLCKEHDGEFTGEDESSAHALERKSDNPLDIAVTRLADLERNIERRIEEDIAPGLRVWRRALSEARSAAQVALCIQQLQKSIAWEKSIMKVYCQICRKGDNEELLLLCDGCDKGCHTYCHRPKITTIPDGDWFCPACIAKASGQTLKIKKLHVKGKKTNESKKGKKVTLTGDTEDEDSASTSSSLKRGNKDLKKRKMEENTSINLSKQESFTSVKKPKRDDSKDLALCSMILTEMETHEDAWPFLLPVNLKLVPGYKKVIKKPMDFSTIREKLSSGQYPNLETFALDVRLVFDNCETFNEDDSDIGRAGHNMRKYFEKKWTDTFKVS

| Compound | Potency |
| --- | --- |
| CCOc1ccccc1NC(=S)N1CCN(c2ccc(OC)cc2)CC1 | inconclusive: 50.1 µM [inhibitor, partial curve] |
| CCCn1nnnc1NCc1ccc(F)cc1 | inactive |
| CCOC(=O)/C(C#N)=C/c1c(Oc2cccc(C)c2)nc2ccccn2c1=O | inactive |
| C/C(=N\Nc1ccc(S(=O)(=O)Nc2ccccc2)cc1[N+](=O)[O-])c1ccc(N2CCOCC2)cc1 | inconclusive: 2.82 µM [inhibitor, full curve] |
| Cc1cccc(CCNS(=O)(=O)c2ccc3c(c2)NC(=O)CS3)c1 | inconclusive: 89.1 µM [inhibitor, single point] |
| O=C(O)c1ccc(NCCc2ccc(Cl)cc2)c([N+](=O)[O-])c1 | inconclusive: 44.7 µM [inhibitor, partial curve] |
| Cc1ccc(NC(=O)Cn2nnc(C(=O)NCc3cccs3)c2N)c(C)c1 | inconclusive: 79.4 µM [inhibitor, single point] |
| Cc1ccc(-c2cc(C(=O)N/N=C/c3ccccc3)n[nH]2)o1 | inconclusive: 79.4 µM [inhibitor, single point] |
| O=C1/C(=C/c2ccco2)Oc2c1ccc(O)c2CN1CCCCC1 | inconclusive: 89.1 µM [inhibitor, single point] |
| O=C1C2C3C=CC(CC3)C2C(=O)N1/N=C/c1ccc(O)c(O)c1 (centres undefined) | inconclusive: 89.1 µM [inhibitor, single point] |
| CC(=O)c1ccc(N2CCN(CC(O)COC(c3ccccc3)c3ccccc3C)CC2)cc1 (centres undefined) | active: 25.1 µM |
| CC(C)c1ccc(C(=O)Nc2cc(-c3ccccc3F)nn2-c2ccccc2)cc1 | inactive |
| COc1cc(C(=O)NC(=S)Nc2ccc(NC(=O)c3ccco3)cc2)cc(OC)c1OC | inactive |
| CCOCC(=O)Nc1cc(S(=O)(=O)N2CCOCC2)ccc1N1CCCCC1 | inconclusive: 3.16 µM [inhibitor, single point] |
| O=C(Nc1ccc(S(=O)(=O)Nc2ncccn2)cc1)c1ccc2ncsc2c1 | active: 39.8 µM |
| CC(C)N1C(=O)CC2(CC[N+](C)(CCOC(=O)C(c3ccccc3)c3ccccc3)CC2)C1=O (centres undefined) | active: 44.7 µM |
| Cc1cc2nc(/C(C#N)=C\c3ccc(-c4ccccc4C(=O)O)o3)[nH]c2cc1C | inconclusive: 79.4 µM [inhibitor, single point] |
| CC(CN1CCC(O)CC1)c1ccccc1 (centres undefined) | inconclusive: 89.1 µM [inhibitor, single point] |
| COc1cc2nc(C3CCC3)nc(N3CCN(c4ccccn4)CC3)c2cc1OC | active: 50.1 µM |
| COc1ccc(CN(C)C(C)C(=O)Nc2ccc([N+](=O)[O-])cc2Cl)cc1OC (centres undefined) | inconclusive: 20 µM [inhibitor, full curve] |
| C/C(=N\NC(=O)c1nnn(-c2nonc2N)c1CN(C)c1ccccc1)c1cccnc1 | inconclusive: 70.8 µM [inhibitor, single point] |
| Cc1cccc(C)c1Nc1nnc(SCC(=O)c2ccc3c(c2)NC(=O)CO3)s1 | inactive |
| CN(C)S(=O)(=O)c1cc(NC(=O)COC(=O)/C=C/c2ccco2)ccc1Cl | inconclusive: 50.1 µM [inhibitor, partial curve] |

| Compound | Potency |
| --- | --- |
| CCOc1ccc(CNCc2c(C(=O)O)n(Cc3ccc(C)cc3)c3cc(C)ccc23)cc1 | inconclusive: 79.4 µM [inhibitor, single point] |
| CCCC(C(=O)NCc1ccco1)N(C(=O)CNS(=O)(=O)c1ccccc1)c1ccc(OC)cc1 (centres undefined) | inconclusive: 89.1 µM [inhibitor, single point] |
| CC(=O)Nc1ccc(-c2cn3ccsc3n2)cc1 | inactive |
| COc1cc(-c2n[nH]c(=S)n2-c2ccc(C)cc2)cc(OC)c1OC | active: 50.1 µM |
| Cc1cc(C(F)(F)F)c2c(n1)sc1c(O)cc(=O)[nH]c12 | inconclusive: 100 µM [inhibitor, single point] |
| CCCCNC(=O)c1onc(CSc2cccc(C)c2)c1C(=O)O | inconclusive: 100 µM [inhibitor, single point] |
| COc1cccc(C2CNC3(CCCC(C)C3)c3[nH]c4ccccc4c32)c1OC (centres undefined) | active: 44.7 µM |
| CCOc1ccc(-c2nnc(N3CCCCC3)c3ccccc23)cc1 | inconclusive: 89.1 µM [inhibitor, single point] |
| COc1ccc(C2CC(c3ccccc3)=NN2C(=O)CN2CCN(Cc3ccccc3)CC2)cc1 (centres undefined) | active: 35.5 µM |
| COc1cccc(CN2CCC(C(=O)Nc3ccc(-c4cccc(C)c4)cc3)CC2)c1O | inconclusive: 35.5 µM [inhibitor, full curve, poor fit] |
| O=C1CCC(C(=O)NCCCn2ccnc2)N1 (centres undefined) | inconclusive: 89.1 µM [inhibitor, single point] |
| Cc1nc2ccc([N+](=O)[O-])cc2c(=O)n1Cc1ccc(Br)cc1 | inconclusive: 35.5 µM [inhibitor, partial curve] |
| COc1ccc(NC(=O)c2ccco2)cc1NC(=O)COc1ccccc1 | inconclusive: 56.2 µM [inhibitor, partial curve] |
| CCOC(=O)c1ccc(NC(=O)c2c(NCc3cccs3)sc3c2CCCC3)cc1 | active: 28.2 µM |
| CCn1cc(CCCC(=O)NCc2ccccc2OC)c2ccccc21 | inconclusive: 70.8 µM [inhibitor, partial curve] |
| O=c1c(-c2ccccc2)[n+]([O-])c2ccccc2n1O | inconclusive: 89.1 µM [inhibitor, single point] |
| CN1CCN(c2ccc([N+](=O)[O-])c(-n3nc(-c4ccccc4)c4ccccc4c3=O)c2)CC1 | active: 35.5 µM |
| CCOc1ccc(NC(=O)c2cnn3c2NC(c2cccc(OC)c2)=CC3c2ccccc2)cc1 (centres undefined) | inactive |
| CCc1ccc(NC(=S)Nc2cccc3cnccc23)cc1 | inconclusive: 89.1 µM [inhibitor, single point] |
| Cc1ccc(/C=C/C(=O)c2ccccc2O)cc1 | inconclusive: 79.4 µM [inhibitor, partial curve] |
| CC(/C=C1\SC(=S)N(NC(=O)c2cccc(O)c2)C1=O)=C\c1ccccc1 | active: 11.2 µM |
| COC(=O)c1ccc(/C=C2/SC(=S)N(CCCC(=O)Nc3ccccn3)C2=O)cc1 | inactive |
| Cc1sc2nc(C3CC3)nc(N3CCN(C(=O)c4ccc(F)cc4)CC3)c2c1C | inconclusive: 50.1 µM [inhibitor, partial curve] |

| Compound | Potency |
| --- | --- |
| Cc1[nH]c2ccc(C(=O)NC3CCCC3)cc2c1C | inconclusive: 89.1 µM [inhibitor, single point] |
| O=Cc1ccc(Sc2nnc(-c3ccccc3)o2)c([N+](=O)[O-])c1 | active: 44.7 µM |
| Cn1c(=O)n(C)c2cc(S(=O)(=O)N3CCOCC3)ccc21 | inconclusive: 89.1 µM [inhibitor, single point] |
| CCOc1ccccc1C(=O)Nc1c(C(=O)Nc2ccc(F)cc2)oc2ccccc12 | inactive |
| O=C(Nc1cccc(NC(=O)c2ccc(-c3cccc(Br)c3)o2)c1)c1ccco1 | inconclusive: 89.1 µM [inhibitor, single point] |
| COc1ccccc1C1NC(c2ccccc2OC)C(C)C(=O)C1C (centres undefined) | inconclusive: 10 µM [inhibitor, full curve, poor fit] |
| Cc1ccc(N/N=C2\CC(=O)c3ccccc32)cc1Cl | active: 11.2 µM |
| CCOc1cc(N2CCOCC2)c(OCC)cc1NC(=O)Cc1cccc(OC)c1 | inconclusive: 89.1 µM [inhibitor, single point] |
| COc1ccccc1N1CCN(C(=O)/C=C/c2cccc([N+](=O)[O-])c2)CC1 | inconclusive: 79.4 µM [inhibitor, single point] |
| COc1ccc(-c2cc(C(=O)Nc3ccc(S(=O)(=O)Nc4onc(C)c4C)cc3)c3ccccc3n2)cc1OC | inconclusive: 89.1 µM [inhibitor, single point] |
| CCOc1ccccc1C(=O)Nc1ccccc1C(N)=O | inactive |
| Cc1ccc(C)c(NC(=O)C[n+]2ccccc2)c1 | inactive |
| Cc1c(C(=O)N2CCCCCC2)c(S(=O)(=O)NCc2ccc(Br)cc2)c(C)n1C | inconclusive: 89.1 µM [inhibitor, single point] |
| CC1CN(C(=O)CCNC(=O)c2ccc(Br)cc2)CC(C)O1 (centres undefined) | inactive |
| COc1ccccc1CN1C[C@@H]2C[C@@H](C3=Cc4cc(Cl)ccc4OC3)N3CCC[C@@]23C1=O | inconclusive: 50.1 µM [inhibitor, partial curve] |
| Cc1ccc(C(=O)N/C(=C\c2ccc(-c3ccc(Br)cc3)o2)C(=O)NCCCN(C)C)cc1 | inactive |
| CCOCCOC(=O)C1=C(C)N(C)C(=O)NC1c1ccccc1Cl (centres undefined) | inconclusive: 89.1 µM [inhibitor, single point] |
| COc1ccc(NC(=O)CSc2ccccn2)c([N+](=O)[O-])c1 | inconclusive: 44.7 µM [inhibitor, partial curve] |
| CCOc1ccccc1NC(=O)Cn1c(=O)n(Cc2ccccc2)c(=O)c2cccnc21 | inactive |
| Cc1cccc(N2C(=O)CC(N3CCN(Cc4ccc(Cl)cc4)CC3)C2=O)c1 (centres undefined) | inactive |
| COc1cccc(/C=C2\SC(=O)N(CCC(=O)N3CCC(C(=O)O)CC3)C2=O)c1 | inconclusive: 89.1 µM [inhibitor, single point] |
| Cc1cc(C(C)c2ccccc2)c(O)c(CN2CCOCC2)c1C (centres undefined) | inconclusive: 44.7 µM [inhibitor, partial curve] |
| CN(C(=O)CSC1=Nc2ccccc2C2=NC(c3ccccc3)C(=O)N12)C1CCCCC1 (centres undefined) | inconclusive: 100 µM [inhibitor, single point] |
